# Data published in PubChem BioAssay AID1508623 (National Center for Advancing Translational Sciences (NCATS), 2021).
# In all, about 48,000 compounds went through this assay and about 450 (0.94%) were called active. Roughly 19% stayed inconclusive and do not appear here. The call rests on the fitted dose curve; in most records, active means well fitted inhibition curve with a large enough effect; inconclusive means small, poorly fitted or top-dose-only effect; inactive means no such curve, though single readings can be large or run the other way. Some of the results follow.
# Test: Primary qHTS for Identification of Small Molecule Inhibitors of Huntingtin Promoter Activity; further: nearly all actives have a fitted effect of over 50% in size
# Details: HEK293 HTT promoter firefly luciferase reporter (activity 0% = vehicle and -100% = no light), 24 h; series mostly up to 57.5 µM; activity change, negative = inhibition: at the top concentration
# Summary of the method: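 Quantitative HTS used concentration series of up to 57.5 uM final on HEK293 luciferase reporter cells, 24 h at 37 degrees C. Readout was Dual-Glo firefly luminescence.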
row,Structure (SMILES),"activity change, negative = inhibition"
1,COc1ccc(-c2cc(C(=O)Oc3ccc(C#N)cc3)no2)cc1,inactive: 9%
2,COc1ccc(C(C)=O)c(O)c1,inactive: -8.01%
3,COc1ccc(CNC(=O)C(CC(C)C)NS(=O)(=O)c2ccc3c(c2)CCN3C(C)=O)cc1 (centres undefined),inactive: -5.27%
4,CCCc1cc(=O)[nH]c(SCc2nc(-c3ccccc3)no2)n1,inactive: 0.445%
5,COc1ccc(Nc2nnc(-n3nc(C)cc3C)c3ccccc23)cc1,inactive: -6.57%
6,CNC(=O)c1c(I)c(NC(=O)CCCCC(=O)Nc2c(I)c(C(=O)O)c(I)c(C(=O)NC)c2I)c(I)c(C(=O)O)c1I,inactive: -21%
7,O=C(NCCOCCn1c(=O)oc2ccccc21)Nc1ccc(F)cc1F,inactive: -19%
8,COc1cc(Br)cc2cc(S(=O)(=O)c3ccccc3)c(=O)oc12,inactive: -12.1%
9,CCCSCCCNC(=O)c1sc2nc(C)cc(C)c2c1-n1cccc1,inactive: -7.19%
10,COc1cccc(NCc2nnc3n2CCCCC3)c1,inactive: 3.84%
11,Cc1ccc(-c2noc(-c3cccnc3N(C)Cc3ccc(Cl)cc3)n2)cc1,inactive: 3.13%
12,CCOc1ccc(NC(=O)CN(c2ccc(C)cc2)S(=O)(=O)c2cccs2)cc1,inactive: -6.08%
13,COc1cccc(CNC(=O)c2ccc3nc(CCc4ccccc4)oc3c2)c1OC,inactive: -0.895%
14,COc1ccc(-c2nc3ccccc3s2)cc1NC(=O)c1cccc(F)c1,inactive: -19.2%
15,Cc1ccc(-n2nc(C)c3c(C)c(CCC(=O)NCc4ccc(Cl)cc4)c(C)nc32)cc1,inactive: -17.5%
16,CCOc1ccc(CNCCSc2nnnn2C)cc1,inactive: -10.4%
17,CCOc1ccc(NC(=O)Cn2nc(CC)n3c(cc4sccc43)c2=O)cc1,inactive: 8.02%
18,Cc1ccc2c(c1)c1c(c(=O)n(-c3cccc(Cl)c3)c(=O)n1CC(N)=O)n2C,inactive: -13.3%
19,COc1ccc(OCC(=O)Nc2cc(-c3nc4ccccc4o3)ccc2Cl)cc1,inactive: 49%
20,CCC(=O)N1CCc2cc(S(=O)(=O)NCCC(=O)Nc3ccc(C)cc3C)ccc21,inactive: -23.9%
21,COc1ccccc1OCCNCC(O)COc1cccc2[nH]c3ccccc3c12 (centres undefined),inactive
22,Cc1ccc(NC(=O)CN2C(=O)c3ccccc3Sc3ccc(C(=O)N4CCOCC4)cc32)cc1C,inactive: -31.3%
23,CC1CCc2noc(NC(=O)c3ccc([N+](=O)[O-])cc3)c2C1 (centres undefined),inactive: -1.74%
24,Cc1ccc(NC(=O)CSc2nc3nccnc3c(=O)n2CCc2c[nH]c3ccccc23)cc1C,inactive: -13.9%
25,CC(=O)c1cccc(NC(=O)c2cc3sc(Cl)cc3n2C)c1,inactive: 24.1%

row,Structure (SMILES),"activity change, negative = inhibition"
1,Cc1ccc(CNC(=O)Cn2ccn(-c3ccc(F)c(F)c3)c(=O)c2=O)cc1,inactive: -7.6%
2,CCC(Sc1nc2ccncc2[nH]1)C(=O)Nc1cc(C)ccc1C (centres undefined),inactive: -35%
3,CCCn1c(=N)c(C(=O)NCc2ccco2)cc2c(=O)n3cc(C)ccc3nc21,inactive: 1.86%
4,CCn1cc(/C=C(\NC(=O)c2ccccc2Cl)C(=O)NCCCn2ccnc2)c2ccccc21,inactive: -11.7%
5,Cc1ccc(C2N3CC4(C)CN2CC(c2ccccc2)(C3)C4=O)cc1 (centres undefined),inactive: -19.2%
6,CCOCCCNC(=O)C(c1ccc(Cl)cc1)N(Cc1ccc2c(c1)OCO2)C(=O)c1ccc(NC(C)=O)cc1 (centres undefined),inactive: -15.5%
7,CC(C)c1nc(CN(C)C(=O)N[C@H](C(=O)N[C@@H](Cc2ccccc2)C[C@H](O)[C@H](Cc2ccccc2)NC(=O)OCc2cncs2)C(C)C)cs1,inactive
8,CCC(=O)Nc1ccc(-c2nc3ncccc3o2)cc1C,inactive: 30.8%
9,Cc1ccc(Cl)cc1NC(=O)c1cc(S(=O)(=O)N2CCOCC2)cn1C,inactive: -1.05%
10,COc1ccccc1CNS(=O)(=O)c1c(C)nc2sc(C)cn2c1=O,inactive: -0.638%
11,CC1CCN(S(=O)(=O)c2ccc3c(c2)N(CC(=O)NCCN(C)C)C(=O)CS3)CC1,inactive: 0.515%
12,COC(=O)c1cc(NC(=O)Cn2ncc3c([nH]c4ccccc43)c2=O)cc(C(=O)OC)c1,inactive: -2.05%
13,CCCCN(C)C(=O)C1CCC(Cn2c(=O)[nH]c3ccsc3c2=O)CC1 (centres undefined),inactive: -9.69%
14,O=C(Cn1c(=O)c2cccn2c2ccc(F)cc21)Nc1cccc(F)c1,inactive: -20.3%
15,OC(c1ccccc1)c1nc2ccccc2n1Cc1c(F)cccc1Cl (centres undefined),inactive: -6.92%
16,Fc1ccc(-n2nc(-c3ccccc3)c3cnc4ccccc4c32)cc1Cl,inactive: 13%
17,CCOc1ccc(-c2cc3c(=O)n(CC(=O)NCc4ccccc4)ccn3n2)cc1,inactive: 33.4%
18,COCCNC(=O)CSc1nc(-c2ccc(C)cc2)[nH]c1-c1ccc(OC)cc1,inactive: -1.91%
19,CC(C)CCNC(=O)C1CCC(CNS(=O)(=O)c2cccc3nsnc23)CC1 (centres undefined),inactive: -8.31% [at 11.5 µM]
20,CCc1ccc(NC(=O)CN2C(C(=O)OC)=C(c3ccccc3)c3ccccc3S2(=O)=O)cc1,inactive: -24.2%
21,CCCc1nn2c(=O)cc(COC(=O)c3ccccc3NC(=O)c3ccc(OCC)cc3)nc2s1,inactive: -0.38%
22,Cc1ccc(C(=O)c2cn(Cc3ccccc3)c3ccccc3c2=O)cc1,inactive: -13.1%
23,Cc1ccccc1OCC(=O)Nc1ccccc1C(=O)OCc1cc(=O)n2nc(C3CC3)sc2n1,inactive: -28.5%
24,Cc1cccc(NC(=O)c2oc3ccccc3c2NC(=O)Cc2coc3cc(C)cc(C)c23)c1,inactive: 5.83%
25,Cc1ccc(-c2c3c(=O)n(C)c(=O)n(C)c3c3c(C)nc4ccccc4n23)cc1,inactive: -11.3% [at 11.5 µM]

row,Structure (SMILES),"activity change, negative = inhibition"
1,Cc1cc(N2CCN(c3ccc(F)cc3)CC2)n2cnnc2n1,inactive: -9.98%
2,COc1ccc(Cl)cc1NC(=O)CSc1nc(=O)[nH]c2c1CCC2,inactive: -25.9%
3,O=C(NCCc1ccc(Cl)cc1)c1ccc(CSCc2ccc(Cl)cc2)o1,inactive: -21.8%
4,CCOc1ccc(NC(=O)CCC(=O)N2CCSc3ccccc32)cc1,inactive: -16.4%
5,CCCC(=O)n1nc(-c2cccnc2)nc1NCc1ccccc1,inactive: -2.23%
6,CCc1ccccc1NC(=O)Cn1c(=O)n(CCc2ccccc2)c(=O)c2ccccc21,inactive: -6.9%
7,COc1cccc(NC(=O)CSC2=Nc3ccccc3C3=NC(CC(=O)NCc4ccccc4OC)C(=O)N23)c1 (centres undefined),inactive: -0.8%
8,CCCCNC(=O)CCSc1nc(-c2ccc3c(c2)OCO3)cc(C(F)(F)F)n1,inactive: -2.32%
9,O=c1oc2ccc(Cl)cc2cc1-c1cn2c(n1)sc1ccccc12,inactive: -28.2%
10,CCOc1ccc(NC(=O)c2c(NCc3cccs3)sc3c2CCCCC3)cc1,inactive: 6.24%
11,OC[C@@H](O)[C@H](O)[C@H](O)[C@@H](O)CO,inactive
12,COc1ccc(C2C=C(c3ccccc3)Nc3nc(NC(=O)/C=C/c4ccccc4OC)nn32)cc1 (centres undefined),inactive: -20.4%
13,Cc1ccnc2nc(NC(=O)c3ccccc3Cl)nn12,inactive: 22.4%
14,Cc1cccc(N(CC(=O)N(C)Cc2ccccc2)S(=O)(=O)c2ccccc2)c1C,inactive: -26.5%
15,CCc1ccc(S(=O)(=O)c2nnn3c2nc(NC(C)C)c2cc(Cl)ccc23)cc1,inactive: -10.4%
16,O=C(NCC1CCCCN1)c1cc(OCC(F)(F)F)ccc1OCC(F)(F)F (centres undefined),inactive: -30.3%
17,CC12CN3CC(c4ccccc4)(CN(C1)C3c1ccc(Cl)cc1)C2=O (centres undefined),inactive: -24.9%
18,CC(=O)c1cc(-c2ccccc2)n(CCC(=O)NC2CCCCC2)c1C,inactive: -23.9%
19,CC1CCc2cc(F)cc3c(=O)c(C(=O)O)cn1c23 (centres undefined),inactive: 6.42%
20,COc1ccc(N2CCN(c3oc(/C=C/c4ccccc4OC)nc3C#N)CC2)cc1,inactive: -1.76%
21,CC(C)Oc1ccc(CNC(=O)c2cccc(NC(=O)c3nsc4ccccc34)c2)cc1,inactive: -1.21%
22,CCOc1ccc(CC(=O)Nc2c(C(=O)c3ccc(F)cc3)oc3ccc(Cl)cc23)cc1OCC,inactive: 4.87%
23,Cc1cc(C)cc(NC(=O)N2CCC(N3CCN(Cc4ccccc4)C(=O)C3=O)CC2)c1,inactive: 9.49%
24,O=C(Nc1ccc(C(=O)OCc2cc(=O)n3ccsc3n2)cc1)c1cccc(F)c1,inactive: -4.47%
25,COc1ccc(OC)c(CNC(=O)C2CCN(S(=O)(=O)c3ccc4[nH]c(=O)oc4c3)CC2)c1,inactive: 0.884%

row,Structure (SMILES),"activity change, negative = inhibition"
1,COc1ccc(N2Cc3cccc(C(=O)Nc4cccc(F)c4)c3C2=O)cc1,inactive: -4.4%
2,Cc1ccc(-c2cc(NC(=O)C(C)Oc3ccccc3F)on2)cc1 (centres undefined),inactive: 24%
3,CN(C)c1ccc(C(=O)Nc2ccc(-c3nc4ccccc4o3)cc2)cc1,inactive: 16.5%
4,Cc1cc(NC(=O)C2CCCN(S(=O)(=O)c3cn(C)cn3)C2)ccc1Br (centres undefined),inactive: -27.6%
5,Cc1ccc(NC(=O)c2ccc(N(Cc3ccccc3)S(C)(=O)=O)cc2)cc1,inactive: -18.8%
6,CC(C)c1ccc(C2=NC(c3ccncc3)=Nc3ccc(F)cc3N2)cc1,inactive: -10.6%
7,CCCn1cc(S(=O)(=O)c2ccc(CC)cc2)c(=O)c2cc(F)c(N3CCN(C)CC3)cc21,inactive: 6.41%
8,COc1ccc(OC)c(CCNC(=O)c2nn(C)c3c2CSc2ccccc2-3)c1,inactive: -27.1%
9,CNC(=O)c1ccc2nc(Cc3ccccc3)oc2c1,inactive: 44.6%
10,CCC1CCc2c(sc(NC(=O)C3c4ccccc4Oc4ccccc43)c2C(=O)OC)C1 (centres undefined),inactive: -31.2%
11,Cc1ccc(C(=O)c2oc3ccccc3c2NC(=O)C(C)Oc2ccccc2Cl)cc1 (centres undefined),inactive: 3.99%
12,COc1ccc(NC(=O)c2c(NCc3cccs3)sc3c2CCCCC3)c(OC)c1,inactive: -9.9%
13,Cc1cc(Br)ccc1NC(=O)CCNS(=O)(=O)c1cccc2nonc12,inactive: -10.1%
14,O=C(Nc1ccc(Br)cc1F)c1cc2nc(-c3ccco3)cc(C(F)(F)Cl)n2n1,inactive: 5.28%
15,O=S(=O)(c1ccc(OC(F)(F)F)cc1)N1CCC(c2nc3ccccc3s2)CC1,inactive: 1.45%
16,CCCOc1ccc2nc(NC(=O)OC)[nH]c2c1,inactive
17,CCOc1ccc(OCC)c(Nc2nc3ccc(C(=O)c4ccccc4)cc3n3cnnc23)c1,inactive: 0.313%
18,O=C(Cn1cc(SCc2ccccc2F)c2ccccc21)N1CCCC1,inactive: 42.1%
19,CCCCOc1ccc(OCCCN2CCOCC2)cc1,inactive: 11.8%
20,CCC(=O)Nc1ccccc1-c1nc2ccccc2n(CC(=O)Nc2ccc(C)c(C)c2)c1=O,inactive: -8.8%
21,Cn1c(=O)c2cc(C(=O)Nc3cccc(C#N)c3)sc2c2ccccc21,inactive: -4.59%
22,COc1ccc(C2=NN(CC(=O)NCCc3ccccc3)C(=O)CC2)cc1,inactive: 8.03%
23,COC(=O)c1ccc(NC(=O)NC(C)c2c(-n3cccc3)sc(C)c2C)cc1 (centres undefined),inactive: -31.6%
24,O=C(NC1CCCC1)c1ccc(CSc2nc3cccnc3n2Cc2ccccc2)cc1,inactive: -21.2%
